The campaign covered roughly 310,000 compounds. About 18,000 (5.8%) were called active. The inconclusive results got no clear call from the source; some entries with a clear call stand among them for comparison. Calls follow the shape of the dose curve; as a rule, active = well fitted inhibition curve with a large enough effect; inconclusive = small, poorly fitted or top-dose-only effect, or another doubt; inactive = no such curve, though single readings can be large or run the other way. Potencies of inconclusive entries are left out as doubtful fits.
assay: Primary qHTS for delayed death inhibitors of the malarial parasite plastid, 48 hour incubation; settings: P. falciparum luciferase growth in erythrocytes; series mostly up to 28.7 µM; activity change, negative = inhibition: at the top concentration
Summary of the method: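 Here the parasites carry a stable luciferase gene and grow inside erythrocytes in Albumax-based RPMI medium with compound for one erythrocytic cycle. Activity is scored as loss of luminescent signal.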
% is scaled to controls: 0 for no effect and ±100 for the full control effect; potency is read from the fitted curve at half-maximal effect; tags tell the direction and shape of the fitted curve.

Question: With `CCOC(=O)N1CCC(N2Cc3cccc(C(=O)Nc4c(C)cccc4CC)c3C2=O)CC1` as the molecule, how does the Potency read?
Answer: inconclusive [inhibitor, full curve]

Question: With `CN(C)c1ccc(C2CC(c3cccc(NS(C)(=O)=O)c3)=NN2C(=O)c2ccccc2)cc1` (stereo not given) as the molecule, how does the Potency read?
Answer: inconclusive [inhibitor, partial curve, poor fit]

Question: For `COc1cccc(NC(=O)COc2cccc3c2CCNC3=O)c1`, which “activity change, negative = inhibition” value is on record?
Answer: inactive: -3.67%

Question: With `C=CCc1ccc(OCCn2cncn2)c(OC)c1` as the molecule, how does the “activity change, negative = inhibition” value read?
Answer: inactive: 7.67%

Question: With `O=S(=O)(N1CCOCC1)n1c(Cc2ccccc2)nc2ccccc21` as the molecule, how does the Potency read?
Answer: inconclusive [inhibitor, full curve]

Question: With `Cc1ccc(OCC(=O)N2N=C(c3ccncc3)CC2(O)C(F)(F)F)cc1C` (stereo not given) as the molecule, how does the Potency read?
Answer: inconclusive [inhibitor, partial curve]

Question: With `CCOC(=O)c1ccc(NC(=O)c2nc[nH]c2C(=O)N2CCc3ccccc3C2)cc1` as the molecule, how does the Potency read?
Answer: inconclusive [inhibitor, single point]

Question: Which “activity change, negative = inhibition” value does the source give for `CCN1CCCC(OC(=O)c2cc(-c3ccc(C)cc3)nc3ccccc23)C1` (stereo not given) here?
Answer: inactive: -8.09%

Question: With `CCC(C)NC(=O)c1cc2cc3ccc(OC)cc3nc2o1` (stereo not given) as the molecule, how does the Potency read?
Answer: inconclusive [inhibitor, partial curve]

Question: Which “activity change, negative = inhibition” value does the source give for `Cc1ccc(-c2csc(NC(=O)CSc3nc(C)cs3)n2)cc1` here?
Answer: inactive: 174%

Question: Which Potency does the source give for `CCCCN1CC(=O)N2[C@H]3c4cc(Br)ccc4OC[C@@H]3[C@H](C(=O)OCC)[C@]2(C)C1=O` here?
Answer: inconclusive [inhibitor, single point]

Question: With `COc1ccc(Cl)cc1NC(=O)Nc1cnccn1` as the molecule, how does the Potency read?
Answer: inconclusive [inhibitor, partial curve, poor fit]

Question: For `CN(CC(=O)Nc1ccc(F)cc1)c1ccc(S(=O)(=O)N2CCCCC2)cc1[N+](=O)[O-]`, which Potency is on record?
Answer: inconclusive [inhibitor, single point]

Question: Which Potency does the source give for `O=[N+]([O-])c1ccc(CSc2nnc(Cc3ccccc3)n2-c2ccc(F)cc2)cc1` here?
Answer: inconclusive [inhibitor, single point]

Question: For `Cc1cc(C)cc(NC(=O)C2(c3ccccc3)CC2(Cl)Cl)c1` (stereo not given), which Potency is on record?
Answer: active: 4.65 µM

Question: Which Potency does the source give for `COc1cccc(NC(=O)CSc2nn3c(=O)c(C)nnc3s2)c1` here?
Answer: inconclusive [inhibitor, partial curve, poor fit]

Question: With `O=C(c1ccc(Cl)c(S(=O)(=O)N2CCOCC2)c1)N1CCN(c2ccccn2)CC1` as the molecule, how does the Potency read?
Answer: active: 11.7 µM

Question: Which “activity change, negative = inhibition” value does the source give for `O=C(Cc1ccc(S(=O)(=O)N2CCOCC2)s1)Nc1ccccc1N1CCOCC1` here?
Answer: inactive: -29%

Question: With `CC(C)CC(NC(=O)C(Cc1ccc(OCc2ccccc2)cc1)NC(=O)OC(C)(C)C)C(N)=O` (stereo not given) as the molecule, how does the “activity change, negative = inhibition” value read?
Answer: inactive: -16.9%

Question: For `Cc1cc2c(NC(=O)Nc3ccccc3)cccc2nn1`, which Potency is on record?
Answer: inconclusive [inhibitor, single point]

Question: For `COc1ccc(/C(O)=C2/C(=O)C(=O)N(c3ccccn3)C2c2cccc(Cl)c2)cc1` (stereo not given), which Potency is on record?
Answer: inconclusive [inhibitor, single point]

Question: With `O=C(N/N=C/c1cc([N+](=O)[O-])ccc1O)NC12CC3CC(CC(C3)C1)C2` as the molecule, how does the “activity change, negative = inhibition” value read?
Answer: inactive: -66.6%

Question: Which “activity change, negative = inhibition” value does the source give for `Cc1cc(NC(=O)C2C3C(=O)N(CCC(C)C)C(C(=O)NCc4ccccc4)C34C=CC2(C)O4)no1` (stereo not given) here?
Answer: inactive: -13.2%

Question: For `CSc1ccccc1NC(=O)CN1CCN(c2ccccn2)CC1`, which Potency is on record?
Answer: active: 7.38 µM

Question: Which Potency does the source give for `CCOc1ccccc1NC(=O)CSc1nncc2ccccc12` here?
Answer: inconclusive [inhibitor, partial curve, poor fit]

Question: With `CN(CC(=O)Nc1ccc(Cl)c(C(F)(F)F)c1)C(=O)C1CC(=O)N(CCc2ccccc2)C1` (stereo not given) as the molecule, how does the Potency read?
Answer: inconclusive [inhibitor, single point]

Question: With `Cc1ccc2cc(C#N)c(N3CCN(C(=O)c4ccccc4)CC3)nc2c1` as the molecule, how does the Potency read?
Answer: inconclusive [inhibitor, partial curve, poor fit]

Question: With `Oc1cccc2cccnc12` as the molecule, how does the Potency read?
Answer: inconclusive [inhibitor, single point]

Question: With `COc1ccc(C2NN=C(c3c[nH]c4ccccc34)C2O)cc1` (stereo not given) as the molecule, how does the Potency read?
Answer: inconclusive [inhibitor, single point]

Question: Which Potency does the source give for `COC(=O)c1ccc(S(=O)(=O)N2CCOCC2)o1` here?
Answer: inconclusive [inhibitor, full curve, poor fit]

Question: Which “activity change, negative = inhibition” value does the source give for `O=C(O)c1ccc(Nc2ccc(Cl)c(Cl)c2)c([N+](=O)[O-])c1` here?
Answer: inactive: 36.1%

Question: Which Potency does the source give for `O=C1CC(Cc2ccc(Cl)cc2)C(=O)N1c1cc(Cl)ccn1` (stereo not given) here?
Answer: inconclusive [inhibitor, full curve, poor fit]

Question: For `O=C(NC(=S)Nc1ccc(N2CCCCC2)c(Cl)c1)c1ccc2c(c1)OCCO2`, which Potency is on record?
Answer: inconclusive [inhibitor, single point]

Question: With `O=C(N/C=C/c1ccco1)Nc1cccc(Cl)c1` as the molecule, how does the “activity change, negative = inhibition” value read?
Answer: inactive: 48%

Question: Which Potency does the source give for `COc1ccccc1/C=C/CN1CCC(Oc2cc(C(=O)NC3CC3)ccc2OC)CC1` here?
Answer: active: 9.28 µM

Question: With `COc1ccccc1CCNC(=O)C1CCC(=O)N(Cc2ccccc2OC)C1` (stereo not given) as the molecule, how does the “activity change, negative = inhibition” value read?
Answer: inactive: -5.37%

Question: For `CC(=O)NC12CC3CC(C1)CC(C(=O)NCC(=O)Nc1c(C)cc(C)cc1C)(C3)C2`, which “activity change, negative = inhibition” value is on record?
Answer: inactive: -29.4%

Question: For `O=c1c2ccccc2cnn1Cc1n[nH]c(=S)n1-c1ccccc1Cl`, which “activity change, negative = inhibition” value is on record?
Answer: inactive: 19.4%

Question: With `Cc1ccnn1-c1ccc(C(=O)NCC(c2ccco2)N2CCCC2)cc1` (stereo not given) as the molecule, how does the Potency read?
Answer: inconclusive [inhibitor, single point]

Question: With `COc1ccccc1-c1noc(-c2ccccc2C(=O)NCC2CCCO2)n1` (stereo not given) as the molecule, how does the “activity change, negative = inhibition” value read?
Answer: inactive: 23.7%

Question: For `CC(C)(C)c1ccc(C(=O)NC(=S)Nn2cnnc2)cc1`, which “activity change, negative = inhibition” value is on record?
Answer: inactive: 8.18%

Question: Which Potency does the source give for `CCNc1ccc(Br)cc(C(=O)/C=C/c2c(Cl)cccc2Cl)c1=O` here?
Answer: inconclusive [inhibitor, single point]

Question: For `COc1ccc(/C=N\Nc2ncc(F)c(N3CCOCC3)n2)cc1OC`, which Potency is on record?
Answer: inconclusive [inhibitor, single point]

Question: For `Cc1cc(C)c2cc(CN(CCN3CCCC3)C(=O)Nc3ccc(F)cc3)c(=O)[nH]c2c1`, which Potency is on record?
Answer: inconclusive [inhibitor, partial curve, poor fit]

Question: Which “activity change, negative = inhibition” value does the source give for `O=C(N/C(=C/c1ccccc1)C(=O)N1CCCCC1)c1ccco1` here?
Answer: inactive: 22.3%

Question: For `CCCCCc1cc(O)c2c(c1)OC(C)(C)C1CC=C(C)CC21` (stereo not given), which Potency is on record?
Answer: active: 2.39 µM

Question: Which Potency does the source give for `Cc1c(Br)c([N+](=O)[O-])nn1CC(=O)Nc1ccc(C(C)C)cc1` here?
Answer: inconclusive [inhibitor, single point]

Question: For `CC(C)Oc1ccc(CCC(=O)NNC(=O)CCC(=O)O)cc1`, which Potency is on record?
Answer: inconclusive [inhibitor, partial curve, poor fit]

Question: With `COc1ccc(-c2nc(-c3ccccc3)nc(N3CCN(C)CC3)c2C#N)cc1` as the molecule, how does the Potency read?
Answer: inconclusive [inhibitor, single point]

Question: For `CCCc1ccc(NC(C)C(=O)Nc2ccc(S(=O)(=O)N3CCOCC3)cc2)cc1` (stereo not given), which Potency is on record?
Answer: inconclusive [inhibitor, single point]

Question: With `O=C(NCCS(=O)c1ccc(Cl)cc1)c1cccc(Cl)c1` (stereo not given) as the molecule, how does the Potency read?
Answer: inconclusive [inhibitor, single point]

Question: Which Potency does the source give for `NC(=O)[C@H]1CC2(CC(c3cccc(NC(=O)COc4ccc(Cl)cc4)c3)=NO2)CN1C(=O)Cc1ccc([N+](=O)[O-])cc1` (stereo not given in full) here?
Answer: active: 8.28 µM

Question: Which Potency does the source give for `Cc1ccnc(NC(=O)CCC(=O)N(CC(=O)NC(C)(C)C)c2ccc(F)c(Cl)c2)c1` here?
Answer: inconclusive [inhibitor, partial curve, poor fit]

Question: For `Cc1onc(-c2c(Cl)cccc2Cl)c1C(=O)N[C@@H]1C(=O)N2[C@@H]1SC(C)(C)[C@@H]2C(=O)O`, which Potency is on record?
Answer: inconclusive [inhibitor, single point]

Question: With `Cc1oc(C(C)(C)C)c(CN2CCOCC2)c1C(=O)O` as the molecule, how does the “activity change, negative = inhibition” value read?
Answer: inactive: 4.99%

Question: Which “activity change, negative = inhibition” value does the source give for `CCOc1ccc(N2C(=O)CC(N3CC(C)OC(C)C3)C2=O)cc1` (stereo not given) here?
Answer: inactive: 23.6%

Question: Which “activity change, negative = inhibition” value does the source give for `Cc1ccccc1C(=O)Nc1ccccn1` here?
Answer: inactive: 23.2%

Question: Which Potency does the source give for `COc1cc2cc(C(c3nnnn3C(C)(C)C)N3CCc4ccccc43)c(=O)[nH]c2cc1OC` (stereo not given) here?
Answer: inconclusive [inhibitor, partial curve]

Question: With `COc1cc(/C=C/C(=O)NCc2nc3ccccc3[nH]2)cc(OC)c1OC` as the molecule, how does the Potency read?
Answer: inconclusive [inhibitor, partial curve, poor fit]

Question: For `Cc1cccc(Nc2nc(-c3c(C)nc4ccccn34)cs2)c1`, which Potency is on record?
Answer: inconclusive [inhibitor, partial curve, poor fit]

Question: With `C#CC[N+](C)(C)CC#Cc1ccc(C)cc1` as the molecule, how does the Potency read?
Answer: active: 1.85 µM

Question: For `CCCCOc1ccc(C2/C(=C(/O)c3ccc4c(c3)CC(C)O4)C(=O)C(=O)N2CCCN2CCOCC2)cc1OC` (stereo not given), which Potency is on record?
Answer: inconclusive [inhibitor, full curve, poor fit]

Question: With `O=C1/C(=C/c2ccncc2)N=C2CCCCCN12` as the molecule, how does the “activity change, negative = inhibition” value read?
Answer: inactive: -8.08%

Question: With `COCCNC(=O)CN1C(=O)COc2ccc(S(=O)(=O)N3CC(C)CC(C)C3)cc21` (stereo not given) as the molecule, how does the “activity change, negative = inhibition” value read?
Answer: inactive: -4.29%

Question: Which “activity change, negative = inhibition” value does the source give for `COCCCNc1nc2ccccc2nc1NS(=O)(=O)c1cc(Cl)ccc1Cl` here?
Answer: inactive: -2.09%

Question: For `CCOc1ccc(CCNC(=O)Cn2c(=O)oc3ccccc32)cc1OCC`, which Potency is on record?
Answer: active: 8.28 µM

Question: For `COc1ccc(O)c(CN2CCC(n3nccc3NC(=O)CCOc3ccccc3)CC2)c1`, which Potency is on record?
Answer: active: 13.1 µM

Question: With `CCc1nc2ccccc2c(C(=O)Nc2cccc(C)c2)c1C` as the molecule, how does the Potency read?
Answer: inconclusive [inhibitor, partial curve, poor fit]

Question: With `Cc1nn(-c2ccccc2)c(N2CCCCC2)c1/C=N/NC(=O)c1ccncc1` as the molecule, how does the Potency read?
Answer: inconclusive [inhibitor, single point]

Question: With `CCOC(=O)C1(CCCc2ccccc2)CCN(Cc2cn(CC)nc2C)CC1` as the molecule, how does the Potency read?
Answer: inconclusive [inhibitor, single point]

Source: PubChem BioAssay AID504832 (National Center for Advancing Translational Sciences (NCATS), 2011)
